{
  "source": "the supplement of paper PMC10600219",
  "note": "Counter-ions that a name gives are not always drawn. The full ranking holds about 2,800 compounds; the median of “cell viability relative to vehicle” is about 0.98, and the lowest 2% start at about 0.45. This is one part of the list.",
  "data": [
    {"test_system": "NCI-H2228 alectinib-DTP", "assay": "cell viability relative to vehicle (fraction of vehicle); NCI-H2228 is an ALK-positive lung cancer line and DTP means drug-tolerant persister; higher = less growth inhibition", "conditions": "100 nM; treatment time 6 days", "method_in_brief": "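Each value is viability relative to vehicle-treated cells, measured as ATP with the CellTiter-Glo 3D Cell Viability Assay. Parental NCI-H2228 cells and drug-tolerant persisters (1000 nM targeted drug, 13 days) in 384-well plates received the 3114-agent TargetMol anti-cancer compound library at 100 nM, or DMSO, and were read 6 days later.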", "values": [
      {"compound": "Cn1cnc2[nH]c(=O)[nH]c(=O)c21", "note": "[7-Methylxanthine]", "cell viability": 1.11},
      {"compound": "CC(C(=O)O)c1ccc(-c2ccccc2)c(F)c1", "note": "(centres undefined) [Flurbiprofen]", "cell viability": 1.04},
      {"compound": "Cc1cc(O)c2c(c1)C(=O)c1cccc(O)c1C2=O", "note": "[Chrysophanic Acid]", "cell viability": 1.03},
      {"compound": "COc1cc2c(N3CCN(C(=O)Nc4ccc(OC(C)C)cc4)CC3)ncnc2cc1OCCCN1CCCCC1", "note": "[Tandutinib]", "cell viability": 0.986},
      {"compound": "CC1CNC(=O)NC1=O", "note": "(centres undefined) [Dihydrothymine]", "cell viability": 1.12},
      {"compound": "COc1ccc2c(c1)Nc1ccccc1S2", "note": "[2-Methoxyphenothiazine]", "cell viability": 1.03},
      {"compound": "O=C(OCC(O)CO)c1ccccc1Nc1ccnc2cc(Cl)ccc12", "note": "(centres undefined) [Glafenine]", "cell viability": 1.14},
      {"compound": "O=c1ccc2cc(O)c(O)cc2o1", "note": "[Esculetin]", "cell viability": 1.01},
      {"compound": "Cc1c(C)c(NCC(=O)N(C)C2CCN(Cc3ccc(C(N)=O)cc3)CC2)c(C)c(C)c1N", "cell viability": 0.837},
      {"compound": "CN(C)CCN1C(=O)c2cccc3cc(NC(N)=O)cc(c23)C1=O", "cell viability": 0.954},
      {"compound": "O=C(Nc1cccc(C(F)(F)F)c1)Nc1cc(S(=O)(=O)NC2CC2)ccc1-c1ccsc1", "cell viability": 0.946},
      {"compound": "O=C(Nc1cc(Oc2cc(F)c(NC(=O)C3(C(=O)Nc4ccc(F)cc4)CC3)cc2F)ccn1)C1CC1", "note": "[Altiratinib]", "cell viability": 0.896},
      {"compound": "O=C1c2c(O)cccc2C([C@@H]2O[C@H](CO)[C@@H](O)[C@H](O)[C@H]2O)c2cc(CO)cc(O)c21", "note": "(some centres undefined) [Aloin]", "cell viability": 0.921},
      {"compound": "CO/N=C(\\C(=O)N[C@@H]1C(=O)N2C(C(=O)O)=C(CSc3nnnn3C)CS[C@H]12)c1csc(N)n1", "note": "[Cefmenoxime hydrochloride]", "cell viability": 1.08},
      {"compound": "CC(NC(=O)C(Cc1ccccc1)NC(=O)OCc1ccccc1)C(=O)CF", "note": "(centres undefined)", "cell viability": 0.979},
      {"compound": "C=CCc1cccc(/C=N/NC(=O)CN2CCN(Cc3ccccc3)CC2)c1O", "cell viability": 0.898},
      {"compound": "COc1ccc(CCC(=O)O)cc1OC", "note": "[3,4-Dimethoxyhydrocinnamic acid]", "cell viability": 0.856},
      {"compound": "CC(C(=O)O)c1ccc2c(c1)[nH]c1ccc(Cl)cc12", "note": "(centres undefined) [Carprofen]", "cell viability": 0.915},
      {"compound": "O=C(CN1CCN(C(=O)c2ccco2)CC1)Nc1cc(C(F)(F)F)ccc1Cl", "cell viability": 0.974},
      {"compound": "Nc1nc2[nH]cnc2c(=S)[nH]1", "note": "[Thioguanine]", "cell viability": 0.829},
      {"compound": "CC(C)c1cc2c(c(O)c1O)[C@@]13CCCC(C)(C)[C@@H]1C[C@@H]2OC3=O", "note": "[Carnosol]", "cell viability": 1.16},
      {"compound": "C=CC(=O)Nc1cc(Nc2ncc(C(=O)Nc3cc(NC(=O)c4cc(OC)c(OC)c(OC)c4)ccc3C)c(NC)n2)ccc1C", "cell viability": 1.14},
      {"compound": "N#CC(=C(O)c1ccc(Cl)cc1Cl)c1nc2ccccc2c(=O)[nH]1", "note": "[Ciliobrevin A]", "cell viability": 0.874},
      {"compound": "COc1cc2c(=O)c(-c3ccc(O)cc3)coc2cc1O", "note": "[Glycitein]", "cell viability": 1.14},
      {"compound": "Cn1cc(-c2cc3c(N4CCN(c5ncc([C@@](C)(N)c6ccc(F)cc6)cn5)CC4)ncnn3c2)cn1", "note": "[Avapritinib]", "cell viability": 0.938},
      {"compound": "CN(C)CC(=O)Nc1ccc2[nH]c(=O)c3ccccc3c2c1", "cell viability": 0.96},
      {"compound": "CNC(=O)c1cc(Oc2ccc(NC(=O)Nc3ccc(Cl)c(C(F)(F)F)c3)c(F)c2)ccn1", "note": "[Regorafenib]", "cell viability": 0.892},
      {"compound": "CC(C)(C)NCC(O)COc1cccc2c1CCC(=O)N2", "note": "(centres undefined) [Carteolol hydrochloride]", "cell viability": 1.05},
      {"compound": "O=C(Nc1ccccc1-c1cn2c(CN3CCNCC3)csc2n1)c1cnc2ccccc2n1", "note": "[SRT1720 hydrochloride]", "cell viability": 0.916},
      {"compound": "CCCC(CCC)C(=O)Nc1ccn([C@@H]2O[C@H](CO)[C@@H](O)C2(F)F)c(=O)n1", "cell viability": 1.02},
      {"compound": "N#Cc1cnc(Nc2cc(NC[C@H]3CNCCO3)c(C(F)(F)F)cn2)cn1", "cell viability": 0.997},
      {"compound": "O=C(O)c1cc(/N=N/c2ccc(O)c(C(=O)O)c2)ccc1O", "note": "[Olsalazine disodium]", "cell viability": 1},
      {"compound": "CC(=O)NCCCS(=O)(=O)O", "note": "[Acamprosate calcium]", "cell viability": 1.03},
      {"compound": "COc1ccc2c(c1OC)C(=O)O[C@@H]2[C@H]1c2c(cc3c(c2OC)OCO3)CCN1C", "note": "[Noscapine hydrochloride]", "cell viability": 1.03},
      {"compound": "CC(C)=CCc1c(O)ccc(C(=O)/C=C/c2ccc(O)cc2)c1O", "note": "[Isobacachalcone]", "cell viability": 1.01},
      {"compound": "C[C@]1(O)C[C@@H](c2nc(-c3ccc4ccc(-c5ccccc5)nc4c3)c3c(N)nccn32)C1", "note": "[Linsitinib]", "cell viability": 0.606},
      {"compound": "C(=C\\c1ccccc1)/CN1CCN(C(c2ccccc2)c2ccccc2)CC1", "note": "[Stugeron]", "cell viability": 1.15},
      {"compound": "COc1ccc(C[C@H]2COC(=O)[C@@H]2Cc2ccc(O[C@@H]3O[C@H](CO)[C@@H](O)[C@H](O)[C@H]3O)c(OC)c2)cc1OC", "note": "[Arctiin]", "cell viability": 0.889},
      {"compound": "Oc1cc(O)c2c(c1)O[C@H](c1ccc(O)c(O)c1)[C@H](O)C2", "note": "[Epicatechin]", "cell viability": 0.952},
      {"compound": "COC(=O)C1=CO[C@@H](O[C@@H]2O[C@H](CO)[C@@H](O)[C@H](O)[C@H]2O)[C@H]2[C@@H]1[C@H](O)C[C@]2(C)OC(C)=O", "note": "[8-O-Acetylshanzhiside methyl ester]", "cell viability": 0.897},
      {"compound": "CN1CCC(=C2c3ccccc3CCc3cccnc32)CC1", "note": "[Azatadine Maleate]", "cell viability": 0.959},
      {"compound": "COc1ccc2c(c1)c(CC(=O)O)c(C)n2C(=O)c1ccc(Cl)cc1", "note": "[Indometacin]", "cell viability": 1.02},
      {"compound": "CC(C)C[C@H](NC(=O)[C@@H](NC(=O)c1cccc(-c2ccccc2)n1)[C@@H](C)O)B(O)O", "note": "[Delanzomib]", "cell viability": 0.301},
      {"compound": "CNC(=O)c1cc(Oc2ccc(NC(=O)Nc3cc(C(C)(C)C)nn3-c3ccc4ncccc4c3)c(F)c2)ccn1", "cell viability": 1.02},
      {"compound": "OC[C@H]1O[C@H](O[C@]2(CCl)O[C@H](CCl)[C@@H](O)[C@@H]2O)[C@H](O)[C@@H](O)[C@H]1Cl", "note": "[Sucralose]", "cell viability": 0.957},
      {"compound": "CCC/N=C1\\S/C(=C\\c2ccc(OC[C@H](O)CO)c(Cl)c2)C(=O)N1c1ccccc1C", "note": "[Ponesimod]", "cell viability": 1.21},
      {"compound": "CC(C)OC(=O)N1CCC(Oc2ncnc3c2cnn3-c2ccc(S(C)(=O)=O)cc2F)CC1", "cell viability": 0.961},
      {"compound": "Cc1ccc(C2Nc3ccccc3-n3c(-c4ccccc4)c4c(=O)n(C)c(=O)n(C)c4c32)o1", "note": "(centres undefined)", "cell viability": 1.04},
      {"compound": "O=C(Nc1ccccc1C(=O)NC1CCCCNC1=O)c1cc2ccccc2s1", "note": "(centres undefined)", "cell viability": 0.882},
      {"compound": "O=C1N[C@](c2ccc(N3CCOCC3)cc2)(c2ccsc2)CC(O)=C1Sc1ccccc1Cl", "cell viability": 0.925},
      {"compound": "COc1cc2nccc(Oc3ccc(NC(=O)Nc4cc(C)on4)c(Cl)c3)c2cc1OC", "note": "[Tivozanib]", "cell viability": 1.12},
      {"compound": "CC(C)(C#N)c1cc(Cn2cncn2)cc(C(C)(C)C#N)c1", "note": "[Anastrozole]", "cell viability": 1.12},
      {"compound": "c1cnoc1", "note": "[Isoxazole]", "cell viability": 1.05},
      {"compound": "Oc1c(I)cc(Cl)c2cccnc12", "note": "[Clioquinol]", "cell viability": 1.09},
      {"compound": "COc1cccc(-c2cc(=O)c3ccccc3o2)c1N", "cell viability": 0.954},
      {"compound": "CN(C)CCOC(C)(c1ccccc1)c1ccccn1", "note": "(centres undefined) [Doxylamine succinate]", "cell viability": 1.04},
      {"compound": "C=CCNC(N)=S", "note": "[Allylthiourea]", "cell viability": 1.11},
      {"compound": "CNC(=O)c1cccc(-c2ccc3c(N4CCOC[C@@H]4C)nc(N4CCOC[C@@H]4C)nc3n2)c1", "note": "[Vistusertib]", "cell viability": 0.594},
      {"compound": "N#Cc1cccc(-c2c[nH]c3ncnc(N4CCOCC4)c23)c1", "cell viability": 0.975},
      {"compound": "O=C(CCc1ccc(O)cc1)c1c(O)cc(O)cc1O", "note": "[Phloretin]", "cell viability": 0.99},
      {"compound": "Cc1cn(CCN2CCN(c3ccccc3-c3cc(C#N)cc(C(=O)NCCCN4CCCC4)c3)CC2)c2ccccc12", "cell viability": 1.19},
      {"compound": "NC(=O)c1cccc2cn(-c3ccc([C@@H]4CCCNC4)cc3)nc12", "note": "[Niraparib]", "cell viability": 0.969},
      {"compound": "OC(CNCC(O)C1CCc2cc(F)ccc2O1)C1CCc2cc(F)ccc2O1", "note": "(centres undefined) [Nebivolol hydrochloride]", "cell viability": 1.12},
      {"compound": "CN(CC(=O)N(Cc1ccc(C2CCCCC2)cc1)c1ccc(C(=O)O)cc1)S(=O)(=O)c1c(F)c(F)c(F)c(F)c1F", "cell viability": 1.09},
      {"compound": "O=C(NCc1ccccc1)c1csc(Nc2ccncn2)n1", "note": "[Thiazovivin]", "cell viability": 0.84},
      {"compound": "C=CC(=O)Nc1cc2c(Nc3ccc(F)c(Cl)c3)ncnc2cc1OCCCN1CCOCC1", "note": "[Canertinib dihydrochloride]", "cell viability": 0.8},
      {"compound": "COC[C@H]1C[C@@H](c2nc(-c3ccc4c(c3)COc3cc5c(ccc6nc([C@@H]7CC[C@H](C)N7C(=O)[C@@H](NC(=O)OC)C(C)C)[nH]c65)cc3-4)c[nH]2)N(C(=O)[C@H](NC(=O)OC)c2ccccc2)C1", "note": "[Velpatasvir]", "cell viability": 0.887},
      {"compound": "C=CC(=O)Nc1ccc(CN(C(=O)Nc2c(Cl)c(OC)cc(OC)c2Cl)c2cc(Nc3ccc(N4CCN(C)CC4)cc3)ncn2)cc1", "cell viability": 0.625},
      {"compound": "COc1ccc(OC)c(C(O)CNC(=O)CN)c1", "note": "(centres undefined) [Midodrine hydrochloride]", "cell viability": 0.808},
      {"compound": "CNCc1ccc(-c2cc(-c3nc(-c4ccc(S(=O)(=O)C(C)C)cc4)cnc3N)on2)cc1", "note": "[Berzosertib]", "cell viability": 0.948},
      {"compound": "O=c1ccc2ccc(OCCCCN3CCN(c4cccc5sccc45)CC3)cc2[nH]1", "note": "[Brexpiprazole]", "cell viability": 1.1},
      {"compound": "CC1C(=O)OC2C(O)C34C5CC(C(C)(C)C)C36C(OC(=O)C6O)OC4(C(=O)O5)C12O", "note": "(centres undefined) [Ginkgolide B]", "cell viability": 1.03},
      {"compound": "C[N+](C)(C)CCCCCC[N+](C)(C)C", "note": "[Hexamethonium Bromide]", "cell viability": 0.884},
      {"compound": "CN(C)/N=N/c1[nH]cnc1C(N)=O", "note": "[Dacarbazine]", "cell viability": 0.984},
      {"compound": "CN1C(C)(C)CCCC1(C)C", "note": "[Pempidine]", "cell viability": 1.12},
      {"compound": "Cn1cc(-c2ccc3ncc(Cc4ccc5ncccc5c4)n3n2)cn1", "cell viability": 0.85},
      {"compound": "CC(CCc1ccccc1)NCC(O)c1ccc(O)c(C(N)=O)c1", "note": "(centres undefined) [Labetalol hydrochloride]", "cell viability": 1.08},
      {"compound": "CCOC(=O)[C@H](CCc1ccccc1)N[C@@H](C)C(=O)N1Cc2ccccc2C[C@H]1C(=O)O", "note": "[Quinapril hydrochloride]", "cell viability": 0.969},
      {"compound": "Cc1cn([C@H]2O[C@@H](CO)[C@H](O)[C@H]2F)c(=O)[nH]c1=O", "note": "[Clevudine]", "cell viability": 0.977}
    ]}
  ]
}
